Variants at the floor of the assay are shown more often than the library holds them.
B1: TPR 5TU (parent)
chain: GGAUCUUCUCGAUCUAACAAAAAAGACAAAUCUGCCACAAAGCUUGAGAGCAUCUUCGGAUGCAGAGGCGGCAGCCUUCGGUGGCGCGAUAGCGCCAACGUUCUCAACUAUGACACGCAAAACGCGUGCUCCGUUGAAUGGAGUUUAUCAUG

Variants of: B1
Experiment: polymerase ribozyme fitness, log enrichment relative to wild type (log ratio); higher = more active; in vitro selection for triplet polymerase activity
Procedure, shortened: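 Mutant libraries of each subunit of a heterodimeric triplet polymerase ribozyme were built by PCR and transcribed. Each library went through one round of in vitro selection in triplicate: annealing with biotinylated primer, partner subunit and triplets, frozen incubation at −7 °C, gel excision of extended constructs, streptavidin-bead capture and RT-PCR. Input and output libraries were Illumina-sequenced; only genotypes with ≥10 input reads and ≥1 read per output were kept. Fitness is log2(genotype enrichment/wild-type enrichment), using inverse-variance-weighted replicate averages.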

Polymerase ribozyme fitness (log ratio), -3.5:
C8A U53A G81C C85G C108U A138G A147G A150U G152U

Polymerase ribozyme fitness (log ratio), -3.76:
U9G C85A

Polymerase ribozyme fitness (log ratio), -4.1:
C8A G58C

Polymerase ribozyme fitness (log ratio), -3.35:
C8U G92U

Polymerase ribozyme fitness (log ratio), -4.13:
C8A A26G A37C G62A A120G G140C G152A

Polymerase ribozyme fitness (log ratio), ≤ -4.2:
U9C A20C A41G G46C G50C G88U C95A G124U
C8A C27U A49C U77G G94A C125A
C8U A41C G46C G71A G83U C116G
C8A A29C C32U A52G U55A G86A A91U A110G C114A C123U
C8A C35U C43A G83C G141U
U9G C10A C43U C57G C99A
C8G C14A A30C C69U C76G A98U U144G
U9C A19U A37C U90A C95A C129G
U9A C27G G50U G126U G136U U144G
C8U A23C U61G G74U C96A A98C G143U
C8G A20C G42U G46U U61A G68A A138U
C8A A22U U44A C85G
U9C G50C C75G C85G C125A
C8U A91U C95A C96A A97C A113G C114G A115G A147U
C8G C38A U53G C54G C75A G83U C116A
C8U A24G A41U U90G C96U
U9G C32U C57G C87A C96U C99U U144G
C8A G46A G50C
C8G A23U A47G G86A C103G A115G C149U
C8A A24U C35U U45A A98G C99G
C8A A49G G74A G86U G141U U148G
U9C A29G C87G
U9G A24U G25A C32U A37C G42A U55A C87A C125G
U9C C38U C51U A52G G74C C85G G143C U145A
U9A C69U C75U C76U C93A A137C
U9A A22G A29C G70C C75G
C8G U61G G81A C87U G92C A121G C132A U144A G152A
C8G U15A C35U C75G C85U A89U
C8U A19U C63G G65C C93G A137C A142U
C8U A22U C27U G70A C85A A89U G92U
C8G G11U A30C C32G C54U C79G G84A G133A U146G
U9C A39G A91U U102A U148A
C8G C10A A30C U56A C57G C87U U102G G143C
U9G C14G U31G C32G C76U
C8G U15C G59C C76G G84A C96A
C8A G70C U134G
C8G U33G U53G A60U A89U A106C
C8G A20U C54U G59A C87A A89C A91C
C8U U53G U55A A60U C75G G94C
C8G A12C A23G A52U C57U C93A C95G A110U
C8G U33A C54U G92A C99A
U9A A24G C54A C87G
C8A C14U A21C U53A G83A A150C
C8G C38G C69U G84U A98U G124U A137G
C8U G25U U55A G62C C85G U144G
C8G G25U A49C A66G A89U A91G
C8G C14G C18G C96U A137U
U9A C57G G84U
U9A C10U C75A C87A A110G A119C
U9A A26U G92U
C8A A28G A40U G94A C131U
U9A G59A A60C C93U
U9A A26U G74A G86U G88U A107U U134C U148C
C8G G59U C87A C103G
C8G G71A G74A C79U C87A C116A
U9C G92A A98G C103G
C8A C96G U104G A110U U127A
U9G A73U C87U U102A C105G C108A
U9C C27G A40G G50U C57U C72U C95U C99G U144G
C8U U61C G80C C85U C99U U146A
C8U G46A U61A
U9C A28U G88U C95U
C8G A30G C38U C85U G143C
U9A G88U
C8G A26U C36U U61G C99U C149G
C8G G11A A52G A89U C93G
U9A A12U A20C A29U C93G C95G
U9C U15G C93A
C8A G88U G92U C95U A106C U127G
U9G C14G A39U G88C
C8U A52C G68C
U9G C76A U90G
U9G C54U U55A C85A C95A A98G A106U
U9C C54U C87G C93U
C8G U45A G58C G65A C75A G92U C132U
U9C A19U A21G G68C A89U C105U A107G
U9G A17C C57U G86A
C8A C10U U33A G81U C87A C103G A147C
U9C G58U U82G G84U U90G A97G A115U C116A A147G
U9C C10G U55A C123U G141A
C8A A37U G59U C87G G136U G141A
U9G A26U G48A U56C C63A A91C C108G C116G A120U G141C
C8G A23U C27G A40G A49C C87U U104G U134G G140A
U9A C27U C75A
C8G C10U C35G C54G U56A U61A C69A G81U G83U
C8G C103G
U9G A66G A113U U146G
C8U C14U A26G G81U C85U C105G A113U
U9C A16C A29G A30U C93U C96A C105G A121C G143C
U9A A16G C93G C103U U104A U135A C149G
C8G A29C U55G A60G C85G A89G G140C
C8G G11U C32G G86A A120C C125U U146G
U9A A60C G81C C85U A107C U135G
C8U A12G G25C A52G U78A C93G
C8U G68U
C8A A23U C57A C76G C95U C96A G128A
C8A A29U G65A C87A C125U U139A
U9A C27U G48C C76G A91C C118A U135C
C8U A24C C35U G58C G59C U82G C95A
C8A G128A
C8U C27U A39U G42C A66U G92C G141A
C8G A66U C72G C85G A115C
U9A A22U U33C A40C A66G G84A
C8G C38U C85G C87A U111A
U9A A21U U55A C85G G112C U145A
U9A C10G A16U A41C A52C C57U G58U C79U C85G A97U U134G G141C
C8U A24U A30U U90A G92C
U9G C75G G80C C87A G141U
U9A A24U A37C G42C G50C G58A C85G A91C U148A
U9C A19G G25C A91U C96U
U9A A47C G58C G71U C87U G124U G143A
U9A U15G C27U G83A U102G
C8G C14U A29U G50U C54U C75G A119U
C8A A30C G67C G68A G88A C93A U135C G141C
C8A C27A C57G G92A
C8U C18G C35A U53A G58C
U9A U15A G48C C51G G84A
C8A A21G A91C C118A C125U
U9A A24G C57U C63A G94C G128A
C8U C18U A20U A22C G42C U78A C87A U104A
U9G A19U G65A C105U A106U
U9A A28U C54A G59A A66U G86A
U9G C14G A19U A21G A28U G70U C79G C93U C95A C96U C118G G133U
U9G A24G A30G C87G
U9A A40C G141U
U9A G42A A47C C57U C96G A110U
C8U U13A G83A C99A G141A
U9A C32G A40G U104G C131A
C8G C14A A28G A64C G71C G92C C105G G126C A142G
C8G A39G G74A C123U
C8A A41G G68A C75A A91G C96U U102G G141A
U9C A16G U44G A49G A64G C105G G124A
C8G C14A A39C G74U G143U
U9C G11U C35U U78G U130A A150C
C8G C93A C108G A115C G124U
U9G A49G U56A G81C U82G C93U A122C
C8A C14G C27A C57U A91G G94U U134A G143A
C8U A40C A41G G50A U56A C93A
U9C A17G U55G A66G C75G C85G C123G
C8G C10U C54G A66U C75G G88A C93U C96A A142C
U9G A24G G48C U53A A66C G67A G84U C96U A119G U134C
C8U C43G A47U A64G G70A C79G C99G U135C G136C U145A
U9G A20U C36G C54A U56A C75G G86A C123U A137G A150C
C8A C54G
C8G A22C A24U C69U A73U C93U
U9A A41G A91U C95A C96G U102G G133A U135C
C8A A73U C75A
U9C A17U A89G A122G
C8G A19U U56A G58A G68A U139C
C8A A29G C32U C35A A89C A150U
C8U U33G A49U C51A C76G G136A
U9A C63U C69U C76U C93A A113U G136C
C8G C43U U78A U90C G94A C108A U134A
U9C A29C
C8U G42C C51U U61G C95A C125G U127G A137U C149G
U9A A17C U31C U102G C103G U127G
U9G C57G G84A C93U G124A U151G

Polymerase ribozyme fitness (log ratio), -3.88:
U9G C35A A39G C87A C125U G143A U151A

Polymerase ribozyme fitness (log ratio), -3.79:
C8A G50U

Polymerase ribozyme fitness (log ratio), -3.64:
C8G C93U

Polymerase ribozyme fitness (log ratio), -3.42:
C8U C123G

Polymerase ribozyme fitness (log ratio), -4.17:
C8A A73G C93A U146C
